Measurements published in patent US20040186122A1, “Method of treating acute pain with a unitary dosage form comprising ibuprofin and oxycodone” (Forest Laboratories, Inc., priority 2002, published 2004).

System: patients with moderate to severe pain following surgical removal of at least 2 ipsilateral bony impacted third molars
Assay: Study 1: single-dose clinical study, onset of analgesia after third molar surgery
Details: single dose 5 mg

COc1ccc2c3c1O[C@H]1C(=O)CC[C@@]4(O)[C@@H](C2)N(C)CC[C@]314.Cl [oxycodone HCl, oxycodone hydrochloride]
onset of analgesia: > 360 min
